In PMC3597564, “The E. coli Effector Protein NleF Is a Caspase Inhibitor” (PLoS ONE, 2013):

Target: T1, catalytic domain of caspase-9 (residues 140-416) (human, UniProt P55211 140-416)
T1 construct: also called purified caspase-9
T1 sequence (looked up): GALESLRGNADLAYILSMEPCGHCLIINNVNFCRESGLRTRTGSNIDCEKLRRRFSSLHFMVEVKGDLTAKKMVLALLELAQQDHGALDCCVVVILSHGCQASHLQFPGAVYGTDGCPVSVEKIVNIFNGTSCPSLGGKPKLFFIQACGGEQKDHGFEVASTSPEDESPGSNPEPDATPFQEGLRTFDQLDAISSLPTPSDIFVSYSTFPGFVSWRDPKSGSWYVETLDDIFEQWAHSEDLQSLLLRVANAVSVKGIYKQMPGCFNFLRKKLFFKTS
Assay: surface acoustic wave (SAW); caspase-9 immobilised, NleF injected; sam5 BLUE and GREEN instruments; model derived from 1:1 binding; BSA and Protein A references subtracted
Settings: both partners purified

B1: purified recombinant NleF (natural protein)
chain: not shown
notes: source: recombinant, purified
In the case of B1, the Kd is reported as about 39 nM.
